In the supplement of paper PMC4466236:
Over roughly 33,000 sequences, “E-score (dimensionless, -0.5 to 0.5)” has its median near -0.058; the highest 2% begin near 0.35. The list shows a part of the results.

System: MvaT
Assay: PBM 8-mer E-score (mean of HK and ME arrays) (E-score (dimensionless, -0.5 to 0.5)); higher = stronger relative binding preference; most listed sequences are background and not binding sites
Method: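 Protein binding microarray: GST-tagged full-length MvaT (P. aeruginosa PAO1) bound to two universal double-stranded 60-mer arrays (ME and HK), each with a constant 25-mer primer and a variable 35-mer region covering all 8-mers. The 8-mer E-score (rank-based, range -0.5 to 0.5, >0.45 = specific binding) is the mean of the two arrays.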

Row | Sequence | PBM 8-mer E-score
1 | CTGGACAG | -0.288
2 | CACACCTC | 0.0325
3 | AAACGATA | 0.14
4 | ATTTTAGG | -0.00392
5 | ATGGGAAG | -0.172
6 | AACTTGTG | 0.102
7 | AGAATCTA | 0.0548
8 | CGTCCAAA | -0.0948
9 | ATCCTAAG | -0.0828
10 | GTTTCCTA | -0.0222
11 | ACAGCAAC | 0.11
12 | CGTATCAC | -0.0677
13 | CATTGTAC | 0.151
14 | AAAACGGA | -0.0527
15 | GATACAAA | 0.247
16 | AAAGACGT | 0.0386
17 | CATGGTAG | -0.105
18 | CAGCGGGG | -0.275
19 | AAGCGTGG | -0.223
20 | GACACGGA | -0.171
21 | CCAATACG | 0.141
22 | AAGAAATT | 0.26

Row | Sequence | PBM 8-mer E-score
23 | GACCTACA | -0.0129
24 | AGAACGCT | -0.0355
25 | CTGCAATA | 0.101
26 | GAGATACA | -0.0187
27 | AGGATCAG | -0.108
28 | TTCCAGAA | 0.055
29 | CTTACCCA | -0.114
30 | GGATTACC | -0.152
31 | TGTGACAA | 0.0246
32 | GATAGGAA | -0.0142
33 | ACTTCAGC | -0.0718
34 | CCCATACG | -0.215
35 | CAATATTG | 0.377
36 | AGATTCAA | 0.0584
37 | AATTGTCA | 0.155
38 | CGGGGCCC | -0.333
39 | TAGACAGA | -0.025
40 | ACCGATTG | -0.103
41 | AACATGCT | 0.048
42 | GTAACGAA | 0.0156
43 | CAGCCAGA | -0.205
44 | GAAAGCTC | -0.277

Row | Sequence | PBM 8-mer E-score
45 | AAAAGAGT | 0.207
46 | AGAGAGGC | -0.343
47 | CGTATGCA | -0.0333
48 | CTGGCATA | 0.0662
49 | TCTAGTCA | -0.0532
50 | CACCACGC | -0.299
51 | CAACGAGG | -0.252
52 | CATAAGCC | -0.102
53 | GAGGGTCA | -0.272
54 | GTACATGA | 0.066
55 | TGCTCAAA | 0.096
56 | CCGCGGTA | -0.161
57 | CAACGAGA | -0.0564
58 | GCTCTTAC | -0.0718
59 | ATATCGAG | 0.208
60 | ACGAAGCA | -0.113
61 | GACTGAGC | -0.176
62 | CATCATAC | 0.0279
63 | ATTATCGA | 0.24
64 | GGGGTCGA | -0.147
65 | GCAAATAC | 0.234
66 | AATGCTCT | -0.0695

Row | Sequence | PBM 8-mer E-score
67 | CCCTCCTA | -0.211
68 | AATGTTTG | 0.212
69 | GATGGAAC | -0.0323
70 | GCCTAGTA | -0.0921
71 | AGAGTTAC | 0.206
72 | CATTATAA | 0.389
73 | AAGCATAG | -0.033
74 | ACAGTTGG | -0.055
75 | CGAGCTAA | 0.0133
76 | AGGCCTAT | -0.235
77 | GCTAATGA | -0.138
78 | GATGCAAA | 0.0673
79 | GCTGAGAC | -0.291
80 | AGACGGCT | -0.164
81 | GCCGGGTA | -0.189
82 | ACACTTGC | -0.00708
83 | GTATAACA | 0.3
84 | GGCGTGAC | -0.179
85 | GATGCCGA | -0.114
86 | GCTGGAGA | -0.0991
87 | AACATCCT | -0.00268
88 | AAACCGGT | 0.036

Row | Sequence | PBM 8-mer E-score
89 | CCGGTTCA | -0.123
90 | CGTCCGGC | -0.16
91 | GAAGAGGC | -0.298
92 | ATCCAACC | -0.00524
93 | AGCGTAGG | -0.192
94 | GCGGTCCA | -0.254
95 | GAGGTCAA | -0.137
96 | ATGGTTCA | -0.0265
97 | CGGAAGGA | -0.287
98 | ACTGATAC | 0.105
99 | ATTGACAC | 0.0827
100 | AAATCTGC | 0.075
101 | GCTCGCCC | -0.317
102 | AACCCGTA | 0.0698
103 | CTGAGCGC | -0.179
104 | AAGGAGTC | -0.047
105 | CTAGCATA | -0.00639
106 | GATAACTA | 0.198
107 | AAAATGCC | 0.129
108 | CTTGATCC | -0.181
109 | AAATGGTA | 0.105
110 | GTTCACAA | 0.0178
